Measurements published in PubChem BioAssay AID504339 (National Center for Advancing Translational Sciences (NCATS), 2011).
The whole screen tested about 390,000 compounds, of which about 17,000 (4.4%) were called active. Inconclusive results, whose numbers are uncertain, are shown with a selection of clear calls. The call rests on the fitted dose curve; in most records, active means well fitted inhibition curve with a large enough effect; inconclusive means small, poorly fitted or top-dose-only effect; inactive means no such curve, though single readings can be large or run the other way. Potencies beside an inconclusive call are fits to weak or partial responses and may not hold up.

Target: Lysine-specific demethylase 4A (Homo sapiens) (UniProt O75164)
Sequence of UniProt O75164 (O75164 whole entry, looked up, the tested form may be a part): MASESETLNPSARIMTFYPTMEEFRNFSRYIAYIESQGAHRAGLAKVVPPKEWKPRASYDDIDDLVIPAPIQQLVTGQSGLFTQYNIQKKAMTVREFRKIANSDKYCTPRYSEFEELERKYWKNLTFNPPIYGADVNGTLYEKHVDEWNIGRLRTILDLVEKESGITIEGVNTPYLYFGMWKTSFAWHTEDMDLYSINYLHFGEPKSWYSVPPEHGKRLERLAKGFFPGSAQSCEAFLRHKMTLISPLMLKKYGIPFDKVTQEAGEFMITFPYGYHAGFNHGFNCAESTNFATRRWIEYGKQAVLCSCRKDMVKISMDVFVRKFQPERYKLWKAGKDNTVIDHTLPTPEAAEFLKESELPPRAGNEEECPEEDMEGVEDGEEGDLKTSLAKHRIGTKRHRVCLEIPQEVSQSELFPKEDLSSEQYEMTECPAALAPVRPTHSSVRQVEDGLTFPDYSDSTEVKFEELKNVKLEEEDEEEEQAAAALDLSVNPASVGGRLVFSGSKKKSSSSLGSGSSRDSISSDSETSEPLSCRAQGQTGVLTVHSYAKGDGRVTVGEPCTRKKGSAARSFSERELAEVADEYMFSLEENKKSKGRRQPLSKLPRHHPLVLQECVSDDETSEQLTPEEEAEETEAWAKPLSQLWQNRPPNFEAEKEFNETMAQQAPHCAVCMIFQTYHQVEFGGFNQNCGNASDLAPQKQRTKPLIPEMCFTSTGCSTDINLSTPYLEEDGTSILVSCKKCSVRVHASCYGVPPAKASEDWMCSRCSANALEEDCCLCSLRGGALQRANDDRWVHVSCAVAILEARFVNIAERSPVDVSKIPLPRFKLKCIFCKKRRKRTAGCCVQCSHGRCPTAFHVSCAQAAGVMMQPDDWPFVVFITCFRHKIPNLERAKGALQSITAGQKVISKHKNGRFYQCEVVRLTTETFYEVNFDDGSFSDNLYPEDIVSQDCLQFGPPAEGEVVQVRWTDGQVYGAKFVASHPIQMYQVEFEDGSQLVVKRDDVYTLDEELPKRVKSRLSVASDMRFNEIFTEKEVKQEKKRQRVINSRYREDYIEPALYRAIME
Test: qHTS Assay for Inhibitors of JMJD2A-Tudor Domain; further: nearly all actives have a fitted effect of over 50% in size
Conditions: AlphaScreen JMJD2A-Tudor / H3K4me3 peptide binding; activity change, negative = inhibition: at 114 µM (top of the series)
On the % scale 0 is the no-effect control and ±100 the full control effect; potency means the concentration at half of the fitted maximal effect; tags describe the fitted curve by direction and shape.

Compound | Potency | activity change, negative = inhibition
C=CCN(C(=O)c1csnn1)C(C(=O)NC1CCCC1)c1ccc(OC)cc1 (stereo unspecified) | inconclusive: 89.1 µM [inhibitor, single point] | –
O=S1(=O)N=C(Oc2ccccc2Cl)c2ccccc21 | active: 112 µM | –
COc1ccc(CCNC(=O)c2ccc3c(c2)N(Cc2ccc(F)cc2)CCS3)cc1OC | inconclusive: 14.1 µM [inhibitor, full curve] | –
Cc1nc(-c2ccc(S(=O)(=O)Nc3ccc(C)c(N(C)C)c3)cc2)co1 | inconclusive: 63.1 µM [inhibitor, partial curve] | –
CCc1nn(CC(=O)NCc2ccccc2Cl)c(=O)c2cccn12 | inconclusive: 56.2 µM [inhibitor, partial curve] | –
CCCCN=C1NN=C(c2cccc([N+](=O)[O-])c2)CS1 | – | inactive: -31%
COc1ccc(/C=N/n2c(-c3ccccc3)n[nH]c2=S)cc1 | active: 25.1 µM | –
CC(=O)O[C@H]1C(=O)[C@@]2(C)[C@H]([C@H](OC(=O)c3ccccc3)[C@]3(O)C[C@H](OC(=O)[C@H](O)C(NC(=O)c4ccccc4)c4ccccc4)C(C)=C1C3(C)C)[C@]1(OC(C)=O)CO[C@@H]1C[C@@H]2O (stereo partly specified) | – | inactive: -7.59%
CC(C(=O)N(C)C1CCS(=O)(=O)C1)N1C(=O)/C(=C/c2cccs2)SC1=S (stereo unspecified) | inconclusive: 44.7 µM [inhibitor, partial curve] | –
O=C(CC1C(=O)NCCN1CC1CCCCC1)NCc1cc(F)ccc1F (stereo unspecified) | active: 11.2 µM | –
C=CCc1ccc(OCCCCNC2CCCC2)c(OC)c1 | inconclusive: 56.2 µM [inhibitor, partial curve, poor fit] | –
Cc1cc(C)c(C)c(OCCCN(C)C)c1 | active: 20 µM | –
COc1ccc(Cl)cc1NC(=O)CNCC(c1ccccc1)N(C)C (stereo unspecified) | – | inconclusive: -53.3% [inhibitor]
Cc1cccc(OCC(=O)Nc2ccc3c(c2)nc(CCN2CCN(c4ccccn4)CC2)n3C)c1 | inconclusive: 89.1 µM [inhibitor, single point] | –
O=C(CN(Cc1cccs1)C(=O)c1csnn1)NC1CCCC1 | active: 79.4 µM | –
COc1ccc(C2=C(Nc3ccc(C)c(C)c3)c3ccccc3C2=O)cc1 | inconclusive: 2.24 µM [inhibitor, full curve] | –
CCN(CC(=O)Nc1ccc2c(c1)OCCO2)C(=O)/C=C/c1cccc(Br)c1 | inconclusive: 63.1 µM [inhibitor, partial curve] | –
CCOC(=O)C1=C(N)N(c2ccccc2)C(=O)C1 | active: 3.55 µM | –
O=C(O)c1ccc(N/N=C/C2=Cc3ccccc3OC2)cc1 | – | inactive: -29.4% [at 11.4 µM]
Cc1cccc(N2CCN(C(=O)CCn3c(=O)c4cccn4c4cccnc43)CC2)c1C | – | inactive: -14.7%
Nc1c(Cl)cc(C2=NCCn3nc4cc([N+](=O)[O-])ccc4c32)cc1Cl | inconclusive: 44.7 µM [inhibitor, partial curve] | –
CCC1=Nc2cc(C(=O)NCc3cccnc3)ccc2Sc2ccc(C)cc21 | inconclusive: 70.8 µM [inhibitor, partial curve, poor fit] | –

Compound | Potency | activity change, negative = inhibition
COc1ccc(C2CC(=O)N(CCCN(C)CCc3ccc(OC)c(OC)c3)C2)cc1 (stereo unspecified) | active: 100 µM | –
COC(=O)[C@H](C(C)C)N(Cc1ccccc1)S(=O)(=O)CCN1CCN(c2ccccc2)CC1 | inconclusive: 28.2 µM [inhibitor, full curve, poor fit] | –
COc1ccc(N2CC(NC(=O)C3CC3)CC2=O)cc1OC (stereo unspecified) | – | inactive: -1.3%
Cc1[nH]nc(-c2ccc(O)c(C)c2O)c1-c1cnn(-c2ccccc2)c1 | inconclusive: 39.8 µM [inhibitor, partial curve] | –
C/C(=N\NC(=O)c1cc(-c2ccncc2)nc2ccccc12)c1ccc(N2CCOCC2)cc1 | inconclusive: 39.8 µM [inhibitor, full curve] | –
Cc1ccc2oc(=O)n(CC(=O)O)c2c1 | – | inactive: -30.3%
CC(C)CCn1c(SCCc2ccccc2)nc2c1c(=O)[nH]c(=O)n2C | – | inactive: -18.9%
COc1cccc(C(C(=O)NC2CCCCC2)N(Cc2ccco2)C(=O)c2ccccn2)c1 (stereo unspecified) | – | inactive: -13.4%
Cc1ccc(-n2c(O)c(C=Nc3cc(C)on3)c3ccccc3c2=O)c(C)c1 | inconclusive: 44.7 µM [inhibitor, single point] | –
CCN(C(=O)Cn1nnc2sc(-c3ccccc3)cc2c1=O)c1cccc(C)c1 | inconclusive: 10 µM [inhibitor, full curve, poor fit] | –
c1ccc(-c2csc(Nc3cccnc3)n2)nc1 | inconclusive: 56.2 µM [inhibitor, partial curve] | –
COc1ccc2cc(CCNS(=O)(=O)c3ccc(NC(C)=O)cc3)c(=O)[nH]c2c1 | inconclusive: 50.1 µM [inhibitor, partial curve] | –
C=CCN1C(=O)/C(=C\c2cccs2)C(C(=O)OC)=C1C | inconclusive: 17.8 µM [inhibitor, partial curve] | –
COC(=O)c1c(NC(=O)CS(=O)(=O)c2ccc(C)cc2)sc2c1CCCC2 | inconclusive: 44.7 µM [inhibitor, full curve, poor fit] | –
O=[N+]([O-])c1ccccc1NCc1ccc(O)c2ncccc12 | inconclusive: 56.2 µM [inhibitor, partial curve] | –
Cc1ccc2c(CC(=O)NCCc3ccc(S(N)(=O)=O)cc3)coc2c1 | active: 44.7 µM | –
N#Cc1cc(NCC2CCCO2)c([N+](=O)[O-])cc1C#N (stereo unspecified) | – | inactive: -21.1%
C=CCOc1cccc(C2/C(=C(\O)c3ccc4c(c3)OCCO4)C(=O)C(=O)N2Cc2cccnc2)c1 (stereo unspecified) | inconclusive: 39.8 µM [inhibitor, single point] | –
Cc1ccc(CNCc2c(C(=O)O)n(Cc3ccc(C)cc3)c3cc(C)ccc23)cc1 | inconclusive: 25.1 µM [inhibitor, full curve, poor fit] | –
CCOc1ccc(N(C)Cc2cc(=O)oc3ccc(OC)cc23)cc1 | active: 14.1 µM | –
COc1ccc(C(=O)N2CCN(c3cccc(Cl)c3)CC2)cc1 | – | inactive: -15%
O=c1c2[nH]c3cc(Br)sc3c2cnn1Cc1ccccc1F | active: 39.8 µM | –

Compound | Potency | activity change, negative = inhibition
CCCCn1c(N)c(C(=S)NC(=O)CC(C)(C)C)c(=O)n(C)c1=O | inconclusive: 2.82 µM [inhibitor, partial curve, poor fit] | –
O=C(O)CN1CCc2ccccc2C1 | active: 28.2 µM | –
C#CCOCCOCCOCCNc1nc(N2CCN(C(=O)[C@H](CCCN=C(N)N)n3cc(C(N)[C@H](C)CC)nn3)CC2)nc(N2CCN(C(=O)[C@H](CC(N)=O)n3cc(C(N)[C@@H](C)CC)nn3)CC2)n1 (stereo partly specified) | inconclusive: 79.4 µM [inhibitor, single point] | –
CC(=O)Nc1ccc(SCC(=O)c2ccc(Br)s2)cc1 | inconclusive: 20 µM [inhibitor, full curve] | –
Cc1cc(C)cc(NC(=O)CSc2nnc(-c3cc4occc4n3C)n2-c2ccccc2C)c1 | – | inactive: -35.3%
CC(=O)Oc1ccc(/C=C2\N=C(C3CCCCC3)OC2=O)cc1 | – | inactive: 5.11%
CCOc1ccc(-n2c(-c3ccccc3)c[nH]c2=S)cc1 | inconclusive: 8.91 µM [inhibitor, partial curve] | –
C[C@H](NC(=O)c1nc[nH]c1C(=O)NC(c1ccccc1)c1ccccc1)C(=O)OCc1ccccc1 | inconclusive: 35.5 µM [inhibitor, partial curve] | –
O=C(N/N=C/c1sc(N2CCCCC2)nc1-c1cccs1)c1cccnc1 | inconclusive: 50.1 µM [inhibitor, partial curve] | –
CC(C)Sc1nc2sc3c(c2c2nnc(SCC(=O)NCc4ccco4)n12)CCCC3 | inconclusive: 10 µM [inhibitor, partial curve] | –
COc1ccc(/C=C/C(=O)c2ccc3ccccc3c2O)cc1CN1CCOCC1 | inconclusive: 14.1 µM [inhibitor, full curve] | –
C=CCNCCCOc1ccc(Cl)cc1Br | active: 10 µM | –
CN(Cc1cccs1)c1ncnc2ccc(-c3ccc4c(c3)OCO4)cc12 | inconclusive: 89.1 µM [inhibitor, partial curve] | –
O=C(NNC(=S)Nc1ccc(Cl)c(Cl)c1)c1cccc([N+](=O)[O-])c1 | inconclusive: 50.1 µM [inhibitor, partial curve] | –
CC(C)N(C(=O)[C@H]1C[C@H](CC(=O)NCC23CC4CC(CC(C4)C2)C3)C(=O)N2CCc3c([nH]c4cc(CCC(=O)N(C)C)ccc34)[C@]12C)C(C)C | inconclusive: 50.1 µM [inhibitor, partial curve] | –
COc1ccc(/C=N/N2CCN(c3ccccc3OC)CC2)cc1OC | inconclusive: 44.7 µM [inhibitor, partial curve] | –
CCc1ccc(-n2cccc2/C=C2/C(=N)N3C(=NC2=O)SN=C3S(C)(=O)=O)cc1 | active: 56.2 µM | –
COc1ccc(CNc2ccc(N3CCOCC3)cc2)cc1 | inconclusive: 39.8 µM [inhibitor, partial curve] | –
CCC(C)c1ccc(NC(=O)c2c([N+](=O)[O-])cnn2CC)cc1 (stereo unspecified) | inconclusive: 56.2 µM [inhibitor, partial curve, poor fit] | –
COC(=O)C1=C(C)N(Cc2ccccc2)C(=NCc2cc(OC)c(OC)c(OC)c2)N[C@H]1c1cccc(F)c1 | – | inactive: -34.5%
Cc1cccc2c1Sc1ccc(Cl)cc1CC2N1CCNCC1 (stereo unspecified) | inconclusive: 44.7 µM [inhibitor, partial curve] | –
O=C(C1CCC(Cn2c(=O)c3sccc3n(Cc3ccccc3F)c2=O)CC1)N1CCCCC1 (stereo unspecified) | inconclusive: 31.6 µM [inhibitor, full curve, poor fit] | –
